In all, about 81,000 sequences were measured (“one-hybrid fitness for binding parS DNA”: median about -0.17, highest 2% from about 0.51 on). This is one part of the list.
B1: Caulobacter ParB omega fusion; a variant is named by its letters at X, in order, B8GW30 (parent)
chain: MESVVVGEPGMSEGRRGLGRGLSALLGEVDAAPAQAPGEQLGGSREAPIEILQRNPDQPRRTFREEDLEDLSNSIREKGVLQPILVRPSPDTAGEYQIVAGERAWRAAQRAGLKTVPIMVRELDDLAVLEIGIIENVQRADLNVLEEALSYKVLMEKFERTQENIAQTIGKSXSHVANXMRLLXLPDEVQSYLVSGELTAXHARAIAAAADPVALAKQIIEGGLSVRETEALARKAPNLSAGKSKGGRPPRVKDTDTQALESDLSSVLGLDVSIDHRGSTGTLTITYATLEQLDDLCNRLTRGI

Variants of: B1
Experiment: one-hybrid fitness for binding parS DNA (scaled: cognate 1, non-cognate 0); higher = stronger binding
Conditions: with parS DNA site
In short: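 Fitness here means the log change in variant-to-wild-type read ratio between plasmids sequenced before and after selection. That scale was set so cognate equals 1 and non-cognate equals 0. The selection was a bacterial one-hybrid screen of Caulobacter ParB libraries, four specificity codons randomised, in E. coli USO carrying a HIS3 reporter with the site 19 bp from the promoter, grown 48 hours at 37°C on M9-minus-histidine with 0.1 mM IPTG and 5 mM 3-AT.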

Row | Variant | one-hybrid fitness for binding parS DNA
1 | DDAS | ≤ 0.2
2 | IRGV | ≤ 0.2
3 | THPW | ≤ 0.2
4 | LNEV | ≤ 0.2
5 | TCRS | ≤ 0.2
6 | RHQV | ≤ 0.2
7 | HTTT | ≤ 0.2
8 | WDLC | ≤ 0.2
9 | AQMM | ≤ 0.2
10 | RPVI | ≤ 0.2
11 | RGAM | ≤ 0.2
12 | NLCC | ≤ 0.2
13 | VSCT | ≤ 0.2
14 | WFGG | ≤ 0.2
15 | VNRT | ≤ 0.2
16 | GQWL | ≤ 0.2
17 | LVRH | ≤ 0.2
18 | YTRW | ≤ 0.2
19 | MNYT | ≤ 0.2
20 | VKTC | ≤ 0.2
21 | QRYV | ≤ 0.2
22 | PSDD | ≤ 0.2
23 | NSNF | ≤ 0.2
24 | NCLM | ≤ 0.2
25 | YAPS | ≤ 0.2

Row | Variant | one-hybrid fitness for binding parS DNA
26 | RLLG | 1.02
27 | YGNF | ≤ 0.2
28 | QWVN | ≤ 0.2
29 | SQQW | ≤ 0.2
30 | HYYG | ≤ 0.2
31 | PVVA | ≤ 0.2
32 | CCTK | ≤ 0.2
33 | ASPE | ≤ 0.2
34 | RWVT | 0.43
35 | SFAF | ≤ 0.2
36 | TSRT | ≤ 0.2
37 | RFLE | ≤ 0.2
38 | QVYC | ≤ 0.2
39 | REYE | ≤ 0.2
40 | HPSC | ≤ 0.2
41 | QCAF | ≤ 0.2
42 | YPVS | ≤ 0.2
43 | LCLN | ≤ 0.2
44 | KYNG | ≤ 0.2
45 | SMVR | ≤ 0.2
46 | LSRC | ≤ 0.2
47 | SHPI | ≤ 0.2
48 | IQLY | ≤ 0.2
49 | RAFE | ≤ 0.2
50 | WDAG | ≤ 0.2

Row | Variant | one-hybrid fitness for binding parS DNA
51 | RGNK | ≤ 0.2
52 | AYGW | ≤ 0.2
53 | CTCV | ≤ 0.2
54 | RIFK | 0.283
55 | GKES | ≤ 0.2
56 | FGYG | ≤ 0.2
57 | GPNT | ≤ 0.2
58 | EPKS | ≤ 0.2
59 | SSPN | ≤ 0.2
60 | QGHD | ≤ 0.2
61 | HGMG | ≤ 0.2
62 | PAAG | ≤ 0.2
63 | VIRC | ≤ 0.2
64 | RMDL | ≤ 0.2
65 | HVTM | ≤ 0.2
66 | RRVW | ≤ 0.2
67 | PDRC | ≤ 0.2
68 | HASK | ≤ 0.2
69 | AAVK | ≤ 0.2
70 | IYDP | ≤ 0.2
71 | HATY | ≤ 0.2
72 | NKNM | ≤ 0.2
73 | YYMC | ≤ 0.2
74 | DNMW | ≤ 0.2
75 | HQIS | ≤ 0.2

Row | Variant | one-hybrid fitness for binding parS DNA
76 | QMAV | ≤ 0.2
77 | IRVQ | ≤ 0.2
78 | HSWF | ≤ 0.2
79 | ESHL | ≤ 0.2
80 | VFVF | ≤ 0.2
81 | SIHR | ≤ 0.2
82 | RIPL | ≤ 0.2
83 | KYLP | ≤ 0.2
84 | CLSK | ≤ 0.2
85 | NNGG | ≤ 0.2
86 | ISCK | ≤ 0.2
87 | MVHG | ≤ 0.2
88 | LNKM | ≤ 0.2
89 | MMML | ≤ 0.2
90 | RSAL | ≤ 0.2
91 | ATIT | ≤ 0.2
92 | QHTF | ≤ 0.2
93 | PTVG | ≤ 0.2
94 | TKDS | ≤ 0.2
95 | KGSM | ≤ 0.2
96 | MWIF | ≤ 0.2
97 | RPPE | ≤ 0.2
98 | KKTI | ≤ 0.2

Source: a collection of fitness landscapes (doi:10.1016/j.celrep.2020.107928)
